Experimental data as given in article PMC10668032.
Some of the results follow. At the low end of the ranking the order means little.

Biological target: SIX1-Q177R homeodomain (UniProt Q15475)
Test: universal protein binding microarray
Details: Universal all-10-mer PBM (8x60K, AMADID 030236), 300 nM GST-tagged protein, Alexa Fluor 488 anti-GST; buffer, salt, pH and temperature not stated; high values mean tight binding; most listed sequences are background and not binding sites; double strand, one strand shown

| Sequence | binding signal [E-score] |
| --- | --- |
| AGATAAAT | -0.205 |
| ATAATCGC | -0.0267 |
| CGGAACGA | 0.0574 |
| GTAGTGGA | -0.069 |
| CTAGTGTA | 0.391 |
| CGCGCTTA | 0.0199 |
| AGATAGGA | -0.19 |
| CGTAATCA | -0.0128 |
| GAGTGGAC | 0.00551 |
| CTACTCAC | 0.0339 |
| GGTTGGTA | 0.0551 |
| AGGGGTGG | 0.083 |
| CAGTCTGC | -0.155 |
| GCCCTCCA | -0.0552 |
| ATAGGAGA | 0.0596 |
| GGCATGTA | -0.161 |
| AAGTCTAC | -0.0428 |
| ACGGAATG | -0.202 |
| CTACGCAG | 0.00543 |
| CGTTCCGC | 0.148 |
| CTGACGTA | -0.103 |
| ACTGCTCA | -0.207 |
| ACTACAGC | 0.0365 |
| CGGACTTA | -0.264 |
| CTATGAAC | 0.0259 |

| Sequence | binding signal [E-score] |
| --- | --- |
| GTCTCCTA | 0.0363 |
| AATCGAGA | -0.124 |
| CAGGTAAA | -0.0647 |
| GCATACGC | 0.0349 |
| GTGTCAAA | 0.453 |
| CCTCCGAG | 0.137 |
| AAAGGGGA | -0.113 |
| CTTGTAGC | -0.151 |
| CATCCCGA | 0.0181 |
| ATGCGATA | -0.086 |
| AGGTTAAG | 0.0807 |
| CGGGTGGC | 0.178 |
| CTTTTCCA | -0.238 |
| CATTCGGC | -0.0762 |
| CTTGATTC | -0.0262 |
| ACTACTAA | 0.0176 |
| GCAGGGAA | -0.227 |
| AAGCTCTC | -0.185 |
| ACTGTATC | 0.0219 |
| CGCGCAGC | 0.0385 |
| GCTATACA | 0.115 |
| CTTAGCGC | -0.072 |
| CATCTCCA | -0.143 |
| CTATTGCA | 0.0449 |
| CGCTAATC | -0.0101 |

| Sequence | binding signal [E-score] |
| --- | --- |
| CGCTTCAC | 0.00131 |
| ACTCTGAT | 0.0644 |
| AACACTCC | 0.379 |
| CATCTGCA | -0.176 |
| GAAGGACC | -0.176 |
| CCGCTCGC | -0.04 |
| CCAGAAAC | 0.0863 |
| AAACCAGG | 0.0533 |
| CTATGCAC | 0.0665 |
| CAGTGGGA | 0.11 |
| CGCGCATA | -0.153 |
| AACTAGAG | -0.0362 |
| ACTCTGGC | -0.0466 |
| AAGAGTTA | 0.172 |
| CGGCAGAG | -0.0562 |
| AAAGAATG | -0.22 |
| CTAGTTCC | 0.0778 |
| CCGGGGAG | 0.0723 |
| ATGGATTA | -0.0755 |
| GACATCGA | -0.238 |
| AACTAGTT | -0.395 |
| ACTCAAGG | -0.0829 |
| CACGCCTC | 0.177 |
| GGTCTAAA | 0.000265 |
| GGCTTCCA | -0.268 |

| Sequence | binding signal [E-score] |
| --- | --- |
| GGATACTA | 0.152 |
| ATCTAAGC | -0.142 |
| GTTTCGCA | -0.116 |
| ATATAGGG | 0.0595 |
| ACTGAATG | -0.0906 |
| ACGCATCT | 0.0591 |
| GGATCCAA | 0.201 |
| ATCTATCG | -0.263 |
| CGTAGTCC | -0.196 |
| CTACACGC | 0.403 |
| ATGTGAGC | -0.161 |
| GAAGGCCA | -0.218 |
| AAGCTTCA | -0.167 |
| ATGAGAAG | -0.056 |
| CAGCTAGA | -0.0892 |
| GTCCTTGA | -0.0394 |
| CACTAGAA | -0.00396 |
| AATACAAG | -0.148 |
| ATCAAACC | 0.0868 |
| ACATCAGG | -0.144 |
| GGCCGCTA | -0.139 |
| CTATCACA | 0.147 |
| AGCCACCG | -0.0471 |
| ACAAGATC | 0.0385 |
| GTCCTCAA | -0.252 |

| Sequence | binding signal [E-score] |
| --- | --- |
| TCACGTCA | -0.144 |
| CCCTGAGG | 0.177 |
| CACCGAAA | 0.329 |
| TCCTTCCA | -0.00067 |
| GGTGAAAA | 0.0206 |
| CGCATCTC | 0.0235 |
| ATAAAGCA | -0.173 |
| GTGTGGCA | 0.246 |
| CCATCCTC | -0.0125 |
| AGGCACAG | -0.282 |
| CAGTTATA | -0.0411 |
| GAGACGGC | -0.232 |
| ATCCTATG | -0.0642 |
| CAGCAATG | -0.03 |
| AGGGCAAC | -0.0606 |
| CTCCAACC | 0.0708 |
| ATCCCCGG | 0.174 |
| ATACGGGC | -0.0639 |
| AAAAACTT | -0.282 |
| AGTGCTTA | -0.0939 |
| AAAATAAG | -0.163 |
| AGTGTTAG | 0.394 |
| TATTAGCA | 0.074 |
| AGACGCGG | 0.0452 |
| CTGTTTAC | -0.0823 |

| Sequence | binding signal [E-score] |
| --- | --- |
| TTCCGAAA | -0.15 |
| ACCATAGG | 0.0594 |
| AAAACTAG | -0.0471 |
| ATAGGATA | 0.122 |
| CTCGACTC | 0.1 |
| AGTATGGC | -0.0453 |
| AGCTGTGA | -0.0533 |
| AATCATTC | -0.217 |
| ATGTTTCA | -0.303 |
| ATCGGAAT | -0.116 |
| CTTACTAC | -0.0879 |
| ACTCTAGC | 0.0247 |
| AAATGTTC | -0.151 |
| TACTTCCA | -0.101 |
| ATTTCAAA | -0.205 |
| CTGCCGGA | -0.234 |
| CACGTGAG | 0.033 |
| CGAATGAC | 0.198 |
| GACAGACC | -0.0795 |
| GTCCGACA | 0.217 |
| ACTCCAAA | 0.0954 |
| ATTTCGGA | -0.224 |
| CGGGTGCA | 0.238 |
| GGGTATTA | 0.161 |
| AACCTCGC | -0.084 |

| Sequence | binding signal [E-score] |
| --- | --- |
| CTTGGTAA | 0.0759 |
| CTGTCCTC | -0.136 |
| TGGTTGAA | -0.0727 |
| ATCCATAA | -0.0611 |
| ATGTTTAC | 0.0247 |
| CTGTGCCA | -0.0907 |
| CTGGGTTA | 0.0728 |
| CCAAGAGA | 0.0328 |
| GGCAAGTA | -0.0555 |
| ACGCTTAC | 0.0323 |
| GTGTCACA | 0.462 |
| AGAGCGAG | -0.144 |
| GGGTACCC | 0.234 |
| GTGTGGTA | 0.265 |
| CTTCCTGA | -0.194 |
| GAAGTCTC | -0.341 |
| AGGCTCAC | -0.0358 |
| CTTAGGAA | 0.0513 |
| CGGCCCCC | -0.0815 |
| CGTGCATC | 0.0284 |
| AATGAACT | -0.206 |
| CAAATCGG | -0.0862 |
